Measurements from patent publication US6482798 (Bayer, dated 2002).

Assays:
human plasma kallikrein = molecular target: T1, human plasma kallikrein (human, UniProt P03952 20-638); assay: enzyme inhibition with chromogenic substrate S-2302, 4 h preincubation, Ki by the method of Bieth
T1 construct: The active enzyme has heavy and light chains cut from one precursor
Experimental: 1 unit of human plasma kallikrein was diluted to 16 ml with buffer (0.05 M tris/0.1 M NaCl, 0.05% Tween 20; pH 8.2). 200 μl of this enzyme solution were mixed with decreasing, volumes of test buffer (250, 240, 230, 220, 200, 180, 170, 150, 100 and 50 μl) and then increasing amounts of inhibitor in the assay buffer were added (10, 20, 30, 50, 70, 80, 100, 150, 200 and 250 μl; concentration 0.7 μg/μl).
(§1) The enzyme/inhibitor solution was preincubated at room temperature for 4 hours. 180 μl of each solution was then added to the well of a microtitre plate and mixed with 20 μl of substrate solution. The change in the absorption was measured at 405 nm for 10 min. The rate of the enzyme reactions was determined and the K_i value was calculated from this according to the method of Bieth (Biochemical Medicine 32: 387–97 (1984)).

Plasmin = Plasmin (Homo sapiens (Human), UniProt P00747 97-580; P00747 581-810, Heavy chain A and light chain B are disulfide-linked in the active two-chain enzyme.); assay: enzyme inhibition with chromogenic substrate Chromozym PL, Ki by the method of Bieth
Chain of Plasmin (P00747 97-580 limits assumed, form in doubt, chain 1 of 2): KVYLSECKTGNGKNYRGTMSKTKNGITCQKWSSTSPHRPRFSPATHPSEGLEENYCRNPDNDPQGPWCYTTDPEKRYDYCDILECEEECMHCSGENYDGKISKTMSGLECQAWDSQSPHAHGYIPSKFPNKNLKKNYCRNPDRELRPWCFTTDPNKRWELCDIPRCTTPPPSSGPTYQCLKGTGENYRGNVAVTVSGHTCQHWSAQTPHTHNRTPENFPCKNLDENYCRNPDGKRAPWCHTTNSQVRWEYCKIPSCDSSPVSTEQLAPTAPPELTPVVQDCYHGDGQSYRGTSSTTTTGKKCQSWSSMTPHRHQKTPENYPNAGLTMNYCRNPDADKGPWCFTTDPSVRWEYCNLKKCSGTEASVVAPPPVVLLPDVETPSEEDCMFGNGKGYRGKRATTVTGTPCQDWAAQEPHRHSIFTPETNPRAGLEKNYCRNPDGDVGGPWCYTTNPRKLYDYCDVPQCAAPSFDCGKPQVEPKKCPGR
Chain of Plasmin (P00747 581-810 limits assumed, form in doubt, chain 2 of 2): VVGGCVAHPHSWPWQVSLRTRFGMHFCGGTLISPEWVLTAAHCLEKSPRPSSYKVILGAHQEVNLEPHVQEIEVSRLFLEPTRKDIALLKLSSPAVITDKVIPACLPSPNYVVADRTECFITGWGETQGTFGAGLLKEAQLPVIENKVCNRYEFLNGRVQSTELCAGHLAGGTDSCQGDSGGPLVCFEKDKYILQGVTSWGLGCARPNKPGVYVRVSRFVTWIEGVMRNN
Experimental: as §1
(§2) The kinetic constants of the complexation with the enzymes plasmin factor XIa, bovine trypsin and chymotrypsin were determined by the same procedure. The substrates were Chromozym PL for plasmin, HD-Pro-Phe-Arg-pNA for factor XI, S-2444 for trypsin and Suc-Phe-Leu-Phe-pNA for chymotrypsin.

bovine chymotrypsin = bovine chymotrypsin (bovine, UniProt P00766); assay: enzyme inhibition with chromogenic substrate Suc-Phe-Leu-Phe-pNA, Ki by the method of Bieth
Experimental: as §1, §2

Factor XIa = Factor XIa (Homo sapiens (Human), UniProt P03951 fragment; P03951 fragment, Heavy and light chains are disulfide-linked. Native factor XIa is a disulfide-linked homodimer of this heavy-light unit; one unit is given.); assay: enzyme inhibition with chromogenic substrate HD-Pro-Phe-Arg-pNA, Ki by the method of Bieth
Chain of Factor XIa (P03951 19-387 limits assumed, form in doubt, chain 1 of 2): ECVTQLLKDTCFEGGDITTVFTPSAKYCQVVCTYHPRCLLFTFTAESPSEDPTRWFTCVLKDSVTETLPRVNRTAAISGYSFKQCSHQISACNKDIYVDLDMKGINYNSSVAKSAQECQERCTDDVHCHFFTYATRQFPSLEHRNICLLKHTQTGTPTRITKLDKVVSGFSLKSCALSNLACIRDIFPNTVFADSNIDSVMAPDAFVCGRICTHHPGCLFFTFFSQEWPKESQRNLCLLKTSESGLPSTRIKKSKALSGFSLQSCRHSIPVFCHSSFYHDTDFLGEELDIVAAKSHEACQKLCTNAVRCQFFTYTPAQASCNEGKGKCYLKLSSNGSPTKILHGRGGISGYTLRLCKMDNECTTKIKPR
Chain of Factor XIa (P03951 388-625 limits assumed, form in doubt, chain 2 of 2): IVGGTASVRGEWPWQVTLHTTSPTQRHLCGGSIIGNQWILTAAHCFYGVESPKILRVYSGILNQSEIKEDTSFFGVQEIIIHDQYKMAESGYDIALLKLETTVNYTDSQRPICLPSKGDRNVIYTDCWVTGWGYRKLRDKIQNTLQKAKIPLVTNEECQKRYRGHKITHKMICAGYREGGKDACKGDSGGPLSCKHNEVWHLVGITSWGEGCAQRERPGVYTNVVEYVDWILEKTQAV
Experimental: as §1, §2

bovine trypsin = bovine trypsin (bovine, UniProt P00760 24-246); assay: enzyme inhibition with chromogenic substrate S-2444, Ki by the method of Bieth
Chain of bovine trypsin (P00760 24-246): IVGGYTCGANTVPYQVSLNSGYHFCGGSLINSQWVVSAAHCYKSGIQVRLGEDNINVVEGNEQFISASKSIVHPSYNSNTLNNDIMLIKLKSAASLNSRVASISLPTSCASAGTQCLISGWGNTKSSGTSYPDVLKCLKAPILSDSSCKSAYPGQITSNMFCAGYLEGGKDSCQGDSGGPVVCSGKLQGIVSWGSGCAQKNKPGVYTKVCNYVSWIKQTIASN
Experimental: as §1, §2

Chain of human plasma kallikrein (P03952 20-638 limits assumed): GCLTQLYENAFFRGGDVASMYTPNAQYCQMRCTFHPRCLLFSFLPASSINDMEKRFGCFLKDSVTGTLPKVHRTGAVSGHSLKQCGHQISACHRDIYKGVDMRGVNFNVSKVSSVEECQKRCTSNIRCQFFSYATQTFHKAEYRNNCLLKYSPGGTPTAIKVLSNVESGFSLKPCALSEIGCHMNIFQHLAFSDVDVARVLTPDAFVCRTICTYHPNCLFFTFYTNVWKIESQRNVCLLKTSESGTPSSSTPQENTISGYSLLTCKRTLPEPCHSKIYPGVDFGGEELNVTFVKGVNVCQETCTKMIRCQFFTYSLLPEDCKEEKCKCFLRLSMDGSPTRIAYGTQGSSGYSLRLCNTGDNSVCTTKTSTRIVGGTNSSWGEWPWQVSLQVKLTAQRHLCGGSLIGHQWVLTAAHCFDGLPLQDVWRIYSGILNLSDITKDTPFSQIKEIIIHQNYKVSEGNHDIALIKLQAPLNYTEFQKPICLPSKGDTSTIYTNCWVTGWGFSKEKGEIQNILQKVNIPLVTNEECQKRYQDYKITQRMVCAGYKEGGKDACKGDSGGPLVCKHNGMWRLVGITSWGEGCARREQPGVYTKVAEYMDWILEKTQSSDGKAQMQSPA

Ki (human plasma kallikrein): 0.02 nM | Ki (Plasmin): 0.5 nM | Ki (bovine chymotrypsin): 9 nM | Ki (Factor XIa): 0.5 nM | Ki (bovine trypsin): 0.02 nM
B1: DesPro2-Ser10-Arg15-Ala17-Asp24-Thr26-Glu31-Asn41-Glu53-aprotinin (designed binder)
chain: RDFCLEPPSTGPCRAAIIRYFYDATAGLCETFVYGGCRANRNNFKSAEDCMETCGGA
notes: also called DesPro-Ser10-Arg15-Ala17-Asp24-Thr26-Glu31-Asn41-Glu53-aprotinin
